Where two headings read alike, the source gives them in different places.
Tests used:
[1] = tested on: KC-0116:BaF3 EGFR-Del19/T790M/C797S; experiment: cells; conditions: KC-0116, 72 h
[2] = tested on: KC-0122:BaF3 EGFR-L858R/T790M/C797S; conditions: read-out: cell proliferation inhibition IC50 (μM) KC-0122; 72 h, CCK-8
[3] = tested on: KC-0122:BaF3 EGFR-L858R/T790M/C797S; experiment: cells; conditions: KC-0122, 72 h, read-out: cell proliferation inhibition IC50 (μM) KC-0122, 72 h, CCK-8
[4] = tested on: KC-0116:BaF3 EGFR-Del19/T790M/C797S; conditions: read-out: cell proliferation inhibition IC50 (μM) KC-0116
[5] = read-out: cell proliferation inhibition IC50 (μM) KC-0116, 72 h, CCK-8

| SMILES | IC50 [1, 5] [µM] | IC50 [2] [µM] | IC50 [3] [µM] | IC50 ([1]; read-out: cell proliferation inhibition IC50 (μM) KC-0116) [µM] | IC50 [4] [µM] |
| --- | --- | --- | --- | --- | --- |
| CN1CCN(c2ccc(Nc3nc(NCC4(O)CCOCC4)c4c(C(=O)c5ccc(F)cc5)c[nH]c4n3)cc2)CC1 [Example 14] | 0.1 to 1 | < 0.1 | 0.1 to 1 |  |  |
| CN1CCN(c2ccc(Nc3nc(NCCC4CCOCC4)c4c(C(=O)c5ccc(F)cc5)c[nH]c4n3)cc2)CC1 [Example 72] | 0.1 to 1 |  | 0.1 to 1 |  |  |
| CN1CCN(c2ccc(Nc3nc(N[C@H]4CC[C@@H](O)CC4)c4c(C(=O)c5ccc(F)cc5)c[nH]c4n3)cc2)CC1 [Example 55] | < 0.1 |  | < 0.1 |  |  |
| C=CC(=O)Nc1cc(Nc2nccc(-c3cn(C)c4ccccc34)n2)c(OC)cc1N(C)CCN(C)C [Osimertinib, reference compound] |  |  |  | 1 to 2 | 1.74 |
| CN1CCN(c2ccc(Nc3nc(NCCN4CCOCC4)c4c(C(=O)c5ccc(F)cc5)c[nH]c4n3)cc2)CC1 [Example 75] | 0.1 to 1 |  | 0.1 to 1 |  |  |
| C=CC(=O)N1CCC(Nc2nc(Nc3ccc(N4CCN(C)CC4)cc3)nc3[nH]cc(C(=O)c4ccc(F)cc4)c23)CC1 [Example 62] | 0.1 to 1 |  | 0.1 to 1 |  |  |
| C=CC(=O)N1CC[C@H](Nc2nc(Nc3ccc(N4CCN(C)CC4)cc3)nc3[nH]cc(C(=O)c4ccc(F)cc4)c23)C1 [Example 27] | 0.1 to 1 |  | 0.1 to 1 |  |  |
| CN1CCN(c2ccc(Nc3nc(N[C@H](CO)C(C)(C)C)c4c(C(=O)c5ccc(F)cc5)c[nH]c4n3)cc2)CC1 [Example 9] | 0.1 to 1 |  | 0.1 to 1 |  |  |
| CN1CCN(c2ccc(Nc3nc(N[C@H]4C=C[C@@H](CO)C4)c4c(C(=O)c5ccc(F)cc5)c[nH]c4n3)cc2)CC1 [Example 20] | 0.1 to 1 |  | 0.1 to 1 |  |  |
| Cn1cc(Nc2nc(N[C@H]3CC[C@H](CO)CC3)c3c(C(=O)c4ccc(F)cc4)c[nH]c3n2)cn1 [Example 110] | < 0.1 |  | 0.1 to 1 |  |  |

Reference: patent publication US20250122202A1, “EGFR INHIBITOR, PREPARATION METHOD THEREFOR AND USE THEREOF” (SHANDONG NEW TIME PHARMACEUTICAL CO., LTD., priority 2021, published 2025)
